Here are results for one compound from patent US10525103B2, “Combined use of a vector encoding a modified receptor and its exogenous agonist in the treatment of seizures” (UCL BUSINESS LTD, priority 2014, dated 2020).

Where two headings read alike, the source gives them in different places.

The test system of the experiment is rats expressing ArchT instead of hM4Di. It is filed as in vivo, rat. As to conditions: ArchT virus.

On to `C[N+]1([O-])CCN(C2=Nc3cc(Cl)ccc3Nc3ccccc32)CC1` [CNO, clozapine-N-oxide], for which the “three measures of seizure severity, vehicle vs CNO trials” value is on record as “no significant differences” (intracortical picrotoxin) and “no significant differences” (intracortical pilocarpine).
